Assay results reported in PubChem BioAssay AID485313 (National Center for Advancing Translational Sciences (NCATS), 2010).
Out of some 320,000 compounds screened, about 7,600 (2.4%) were called active. The shares of active, inactive and inconclusive entries below differ from those in the screen. Calls come from the whole dose curve; as a rule, active = well fitted activation curve with a large enough effect; inconclusive = small, poorly fitted or top-dose-only effect; inactive = no such curve, though single readings can be large or run the other way. No potency is given beside an inconclusive call; the fits are too rough.

Assay: qHTS Assay for NPC1 Promoter Activators; note: nearly all actives have a fitted effect of over 60% in size;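 for activation: reporter is driven by a mutant NPC1 promoter; % of control where 0% means no effect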
Settings: Huh7 NPC1 promoter luciferase reporter, 24 h; series mostly up to 9.22 µM; activation: at the top concentration
Method in brief: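 Quantitative HTS used a cell-based reporter: Huh7 cells stably bearing the NPC1 promoter upstream of luciferase were treated with compounds for 24 h, and promoter activation was read as luminescence.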
Potency is the fitted concentration of half-maximal effect; tags give direction and shape of the fitted curve.

Row | SMILES | Potency | activation
1 | COc1ccc(-n2nc(C(=O)NCC(=O)N3CCN(c4ccccc4F)CC3)c3ccccc3c2=O)cc1OC | inconclusive [activator, partial curve] | –
2 | COCCNc1cc(C)nc2cc(-c3ccc(C)cc3)nn12 | inconclusive [activator, partial curve, poor fit] | –
3 | O=C(COC(=O)c1c2c(nc3ccccc13)/C(=C/c1ccco1)CC2)NC1CCCC1 | – | inactive: 18.8%
4 | CCOc1ccc(NC(=O)c2ccc(NC(=O)COC(=O)c3ccc(NC(=O)CC#N)cc3)cc2)cc1 | inconclusive [activator, single point] | –
5 | Cc1c(/C(O)=C2\C(=O)C(=O)N(CCN(C)C)C2c2cccs2)cnn1-c1ccccc1 (stereo not given) | active: 2510 nM | –
6 | COc1ccc(-c2csc(-c3ccc(C(=O)O)cc3)n2)cc1 | active: 316 nM | –
7 | COc1ccc(Cn2c(/C=C/c3ccccc3)nc3ccccc32)cc1 | active: 2510 nM | –
8 | CCCN(CC(=O)Nc1cc(Cl)ccc1Cl)C(=O)CN1C(=O)C2CCCCC2C1=O (stereo not given) | – | inactive: -0.451%
9 | O=C(CN1C(=O)c2ccccc2S1(=O)=O)c1ccc(F)cc1 | inconclusive [activator, full curve] | –
10 | O=c1cc(-c2ccccc2)nc2cc(-c3ccc(Br)cc3)[nH]n12 | inconclusive [activator, partial curve] | –
11 | CC1Oc2ccccc2C=C1/C=N/Nc1ccc(C(=O)O)cc1 (stereo not given) | inconclusive [activator, full curve] | –
12 | C=C(C)CSc1nnc(-c2cccc(Cl)c2)n1N | inconclusive [activator, single point] | –
13 | O=C(CSc1nc2cc(Cl)ccc2s1)c1ccco1 | inconclusive [activator, partial curve] | –
14 | c1cnc(SCCOc2cccc3ccccc23)nc1 | inconclusive [activator, partial curve] | –
15 | CC1(C)CC(=O)C=C(c2cccc(O)c2)C1 | – | inactive: 7.06%
16 | O=C(Nc1ccc(-c2nc3ccccc3s2)c(OC(=O)c2ccccc2)c1)c1ccccc1 | active: 1580 nM | –
17 | COc1ccccc1C(=O)N/N=C/C(C)=C/c1ccccc1 | inconclusive [activator, single point] | –
18 | COC(=O)Cn1c(C)nc2c(sc3nc(C)cc(C)c32)c1=O | inconclusive [activator, single point] | –
19 | O=C(Nc1ccc(F)cc1)N1CCN(C(=O)C2CCCO2)CC1 (stereo not given) | – | inactive: 7.08%
20 | CN(CCOc1ccc(Cl)cc1)C(=O)CN1C(=O)NC2(CCCCC2)C1=O | – | inactive: 1.81%
21 | COc1cccc(/C=N/Nc2ccc([N+](=O)[O-])cc2)c1O | inconclusive [activator, single point] | –
22 | O=C(/C=C/c1ccc2ccccc2n1)N1CCN(S(=O)(=O)c2ccccc2F)CC1 | – | inactive: -8.62%
23 | CC1=NNC(=O)c2ccccc2O1 | – | inactive: -1.44%
24 | NC(=O)c1ccc(CSc2nc3ccccc3s2)cc1 | inconclusive [activator, partial curve] | –
25 | COc1cccc(C(=O)Nc2cnn(C(C)C)c2)c1 | inconclusive [activator, partial curve] | –

Row | SMILES | Potency | activation
26 | O=C(Cc1ccccc1[N+](=O)[O-])NC1CC2CCC1C2 (stereo not given) | – | inactive: -1.35%
27 | CCc1ccc(OCc2cccc(C(=O)N/N=C\c3cnn(C)c3C)c2)cc1 | inconclusive [activator, partial curve] | –
28 | O=C(Nc1ccc(NC(=O)c2cccs2)cn1)c1ccco1 | active: 316 nM | –
29 | C=CCSc1nnc(NC(=O)C2=COCCO2)s1 | active: 3980 nM | –
30 | N#C/C(=C\c1ccc(N2CCOCC2)c([N+](=O)[O-])c1)c1nc2ccccc2[nH]1 | – | inactive: 18.3%
31 | COCCNC(=O)c1ccccc1NC(=O)C1COc2ccccc2O1 (stereo not given) | – | inactive: -2.34%
32 | Cc1ccc(NC(=O)c2cccc3ccccc23)cc1 | inconclusive [activator, single point] | –
33 | CC1CCCCN1C(=O)c1cc2ccccc2cc1O (stereo not given) | – | inactive: -4.85%
34 | Nc1nc(SCc2ccccc2)[nH]c(=O)c1-c1ccccc1 | inconclusive [activator, partial curve] | –
35 | COC(c1ccccc1)c1nnc(CCC(=O)N(C)C(C2CC2)C2CC2)o1 (stereo not given) | inconclusive [activator, single point] | –
36 | Fc1ccc(-c2cn3cc(C(F)(F)F)cc(Cl)c3n2)cc1 | inconclusive [activator, single point] | –
37 | Nc1nc(Nc2ccc(Cl)cc2)nc2ccccc12 | active: 631 nM | –
38 | CCOC(=O)c1sc(=NC(=O)c2cccc(OC)c2)n(C)c1C | active: 3550 nM | –
39 | O=C(O)c1ccccc1CSc1nc2ccccc2s1 | inconclusive [activator, single point] | –
40 | CN(C)c1ccc(NC(=O)c2ccc([N+](=O)[O-])cc2Cl)cc1 | active: 2510 nM | –
41 | CCOc1ccc(CCNC(=O)COC(=O)c2cccnc2OCC)cc1OCC | inconclusive [activator, single point] | –
42 | Cc1ccc(C(=O)O/N=C(\N)c2ccccn2)c(Cl)c1 | inconclusive [activator, full curve, poor fit] | –
43 | Cc1ccc(C(=O)N/C(N)=N/c2nc3ccccc3o2)cc1 | inconclusive [activator, partial curve] | –
44 | COc1cc(C=C(c2nc3ccccc3s2)c2nc3ccccc3s2)cc(OC)c1O | – | inactive: 2.06%
45 | Fc1cccc(F)c1/C=C/c1ccc2ccccc2n1 | inconclusive [activator, partial curve] | –
46 | CCC(=O)Nc1cccc(NC(=S)NC(=O)c2ccccc2)c1 | active: 2820 nM | –
47 | COc1ccc(/C=N/Nc2ccccn2)cc1OC | inconclusive [activator, partial curve] | –
48 | COc1cccc(OC)c1C(=O)Nc1cccc(C(C)=O)c1 | – | inactive: -2.05%
49 | Cc1ccc(NC(=S)c2nc3ccccc3s2)cc1 | active: 1260 nM | –
50 | O=C(Nc1cccc(F)c1)NC1CCCCC1 | inconclusive [activator, partial curve] | –
